Experimental data as given in patent US20240417463A1 (ADAGENE PTE, published 2024).

B1: TY21446 (antibody, human IgG4 S228P, kappa)
heavy: EVQLVESGGGLVQPGGSLRLSCAASGFTFTNYAIHWVRQAPGKGLEWVSAISGSGSSTYYADSVKGRFTISRDNSKNTLYLQLNSLRAEDTAVYYCARRGSYGFGAFDYWGQGTLVTVSSASTKGPSVFPLAPCSRSTSESTAALGCLVKDYFPEPVTVSWNSGALTSGVHTFPAVLQSSGLYSLSSVVTVPSSSLGTKTYTCNVDHKPSNTKVDKRV[skipping human IgG4 Fc with S228P (EU numbers)]
light: DIQLTQSPSSLSASVGDRVTITCRASQTIGRYLNWYQQKPGKAPKLLIYDASNRATGIPSRFSGSGSGTDFTLTISSLQPEDFATYYCQQRYPWPYTFGQGTKVEIKRTVAAPSVFIFPPSDEQLKSGTASVVCLLNNFYPREAKVQWKVDNALQSGNSQESVTEQDSKDSTYSLSSTLTLSKADYEKHKVYACEVTHQGLSSPVTKSFNRGEC
notes: also called TY21446 parental antibody
B2: TY26294 (antibody, human IgG4 S228P, kappa)
heavy: B1 heavy
light: EVGSYLTVDYFCDIDPLYCNAGGGPLGLAGSGGSDIQLTQSPSSLSASVGDRVTITCRASQTIGRYLNWYQQKPGKAPKLLIYDASNRATGIPSRFSGSGSGTDFTLTISSLQPEDFATYYCQQRYPWPYTFGQGTKVEIKRTVAAPSVFIFPPSDEQLKSGTASVVCLLNNFYPREAKVQWKVDNALQSGNSQESVTEQDSKDSTYSLSSTLTLSKADYEKHKVYACEVTHQGLSSPVTKSFNRGEC

Assays:
[1] = molecular target: T1, human CD47 on the cell surface (CEM, Raji and other human tumor cells, human RBCs) (human, UniProt Q08722); assay: cell-based or functional assay
[2] = molecular target: T2, hCD47-ECD/Fc protein (Sinobiological) (human, UniProt Q08722 in part, biotinylated in the Octet assay, sites not stated); assay: ELISA, coated hCD47-ECD/Fc
T2 construct: extracellular domain; Bought protein; also called human CD47-Fc antigen; recombinant hCD47-ECD/Fc; not shown: Fc part of the bought fusion protein

[3] = molecular target: T3, cynoCD47-ECD/His protein (Sinobiological) (cynomolgus monkey, UniProt A0A2K5X4H8 19-141); assay: ELISA, coated cynoCD47-ECD/His
T3 construct: Bought protein; also called cynomolgus monkey CD47; Monkey CD47

[4] = molecular target: T1, human CD47 on the cell surface (CEM, …); assay: flow cytometry, CEM cells, batch 1
[5] = molecular target: T1, human CD47 on the cell surface (CEM, …); assay: flow cytometry, CEM cells, batch 2
[6] = molecular target: T2, hCD47-ECD/Fc protein (Sinobiological); assay: ELISA, coated hCD47-ECD/Fc, batch 1
[7] = molecular target: T2, hCD47-ECD/Fc protein (Sinobiological); assay: ELISA, coated hCD47-ECD/Fc, batch 2
[8] = molecular target: T2, hCD47-ECD/Fc protein (Sinobiological); assay: ELISA, coated hCD47-ECD/Fc, batch 3
[9] = molecular target: T1, human CD47 on the cell surface (CEM, …); assay: flow cytometry, Raji cells, batch 1
[10] = molecular target: T1, human CD47 on the cell surface (CEM, …); assay: flow cytometry, Raji cells, batch 2
[11] = molecular target: T1, human CD47 on the cell surface (CEM, …); assay: flow cytometry, Raji cells, batch 3
[12] = molecular target: T1, human CD47 on the cell surface (CEM, …); assay: flow cytometry, human RBCs, batch 1
[13] = molecular target: T1, human CD47 on the cell surface (CEM, …); assay: flow cytometry, human RBCs, batch 2
[14] = molecular target: T2, hCD47-ECD/Fc protein (Sinobiological); assay: BLI (Octet RED96), biotin-hCD47-ECD/Fc on SA sensors, 1:1 model;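 also: test antibodies as analytes, 300 s association then 300 s dissociation in running buffer, with benchmark reference antibodies run as controls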
[15] = molecular target: T2, hCD47-ECD/Fc protein (Sinobiological); assay: competition ELISA vs biotin-hSIRPα-ECD/His on coated hCD47-ECD/Fc, experiment 2
[16] = molecular target: T4, mCD47-ECD/His protein (Sinobiological) (mouse, UniProt Q61735 19-140, limits assumed); assay: ELISA, coated mCD47-ECD/His
T4 construct: extracellular domain; Bought protein; also called mouse CD47; not shown: His tag
T4 sequence (looked up): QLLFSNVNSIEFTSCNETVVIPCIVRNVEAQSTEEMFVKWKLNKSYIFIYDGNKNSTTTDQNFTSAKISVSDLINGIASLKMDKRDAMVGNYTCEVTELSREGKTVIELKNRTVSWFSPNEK

[17] = molecular target: T1, human CD47 on the cell surface (CEM, …); assay: flow cytometry on CEM cells, EC50 ratio against parental TY21446; member found by dividing the values of the 21st table, batch 2
[18] = molecular target: T1, human CD47 on the cell surface (CEM, …); assay: flow cytometry on human RBCs, EC50 ratio against parental TY21446; member found by dividing the values of the 23rd table, batch 2
[19] = molecular target: T1, human CD47 on the cell surface (CEM, …); assay: flow cytometry on CEM cells, EC50 ratio against TY26294 after cleavage; member found by dividing the values of the 21st table, batch 2

T3 sequence (A0A2K5X4H8 entry or part of it limits assumed): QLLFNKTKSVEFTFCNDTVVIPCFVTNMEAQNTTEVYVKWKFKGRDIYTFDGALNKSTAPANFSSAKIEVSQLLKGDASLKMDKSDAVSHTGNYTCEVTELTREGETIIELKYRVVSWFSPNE

Row | Binder | Max. Phagocytosis (%), donor A [1] | Max. Phagocytosis (%), donor B [1] | EC50 [4] | EC50 [5] | max MFI [5] | EC50 [6] | EC50 [7] | EC50 [8] | EC50 [9] | EC50 [10] | EC50 [11] | max MFI [11] | EC50 [12] | EC50 [13] | max MFI [13] | also measured
1 | B1 | 48% | 56.1% | 0.41 nM | 0.51 nM | 301000 MFI | 0.23 nM | 0.35 nM | 0.62 nM | 0.48 nM | 0.48 nM | 0.24 nM | 145000 MFI | 0.37 nM | 0.55 nM | 18000 MFI | EC50 of macrophage phagocytosis of CEM cells, donor A [1]: 0.9 nM; EC50 of macrophage phagocytosis of CEM cells, donor B [1]: 0.54 nM; EC50 [2]: 0.41 nM; EC50 [3]: 0.46 nM; Kd [14]: 0.194 nM; koff [14]: 0.000124 s⁻¹; kon [14]: 642000 M⁻¹ s⁻¹; IC50 [15]: 2.86 nM
2 | B2 | 15.2% | 5.2% | 520 nM | 71.2 nM | 304000 MFI | 160 nM | 186 nM | 146 nM | 272 nM | 335 nM | 27.6 nM | 150000 MFI | 482 nM | 1100 nM | 8260 MFI | binding result [16]: no binding; masking efficiency (EC50 masked / EC50 parental) [17]: 139 fold; masking efficiency (EC50 masked / EC50 parental) [18]: 2010 fold; masking efficiency (EC50 uncleaved / EC50 cleaved) [19]: 174 fold
